According to PubChem BioAssay AID1508623 (National Center for Advancing Translational Sciences (NCATS), 2021):
Among all 48,000 compounds or so, about 450 (0.94%) were called active. Roughly 19% stayed inconclusive and do not appear here. The call rests on the fitted dose curve; in most records, active means well fitted inhibition curve with a large enough effect; inconclusive means small, poorly fitted or top-dose-only effect; inactive means no such curve, though single readings can be large or run the other way. The list shows a part of the results.

Assay: Primary qHTS for Identification of Small Molecule Inhibitors of Huntingtin Promoter Activity; further: nearly all actives have a fitted effect of over 50% in size
Details: HEK293 HTT promoter firefly luciferase reporter (activity 0% = vehicle and -100% = no light), 24 h; series mostly up to 57.5 µM; activity change, negative = inhibition: at the top concentration
Method in brief: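 HEK293 luciferase promoter-reporter cells (2,500/well) plated 24 h, then compounds added at up to 57.5 uM final for 24 h at 37 °C. Firefly luminescence by Dual-Glo, normalized to vehicle (0%) and zero RLU (-100%).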
Potency means the concentration at half of the fitted maximal effect.

Row | SMILES | activity change, negative = inhibition | Potency
1 | COc1ccc2nc(N(Cc3cccnc3)C(C)=O)sc2c1 | inactive: -12.2% | –
2 | COc1cc(Cl)c(C)cc1Nc1nc2ccccc2c2nnc(C)n12 | inactive: 5.9% | –
3 | COC(=O)c1cc2oc(C)cc2n1Cc1ccc(Br)cc1F | inactive: 4.14% | –
4 | COC(=O)c1ccc(NC(=O)CSc2ccc(-c3sc(-c4ccccc4)nc3C)nn2)cc1 | inactive: -4.93% | –
5 | CCC(Oc1ccccc1-c1nnc(-c2ccccc2)o1)C(=O)Nc1ccc(C(C)=O)cc1 (stereo not drawn) | inactive: -15% | –
6 | CCc1ccc(-n2c(=O)c3cccnc3n2CC(=O)NCc2ccccc2)cc1 | inactive: -18.3% | –
7 | O=C(NC1CC(=O)N(c2ccc(F)cc2)C1)c1ccco1 (stereo not drawn) | inactive: 19.8% | –
8 | COc1ccc(Nc2ncc3c(n2)CCN(Cc2ccccc2C)C3)c(OC)c1 | inactive: -3.1% | –
9 | COC(=O)c1c(C)oc2ccc(N(C(=O)c3ccncc3)S(=O)(=O)c3ccc(OC)cc3)cc12 | – | active: 2.24 µM
10 | O=C(Nc1cccc(C(F)(F)F)c1)c1ccc2c(c1)nnn2C1CCCC1 | inactive: -0.499% | –
11 | CCc1ccc(-n2c(=O)c3c4c(sc3n(Cc3ccccc3C#N)c2=O)CCC4)cc1 | inactive: -4.91% | –
12 | COc1ccc(S(=O)(=O)NCCc2nnc3ccc(SCC(=O)Nc4ccccc4C)nn23)cc1 | inactive: -14.3% | –
13 | COc1ccc(-c2nc3sc(CCNC(=O)c4ccco4)c(C)n3n2)cc1 | inactive: 33.6% | –
14 | CCS(=O)(=O)Nc1ccc(-c2cn3ccsc3n2)cc1 | inactive: 67.3% | –
15 | COc1cc2c(cc1OC)CN(C(=O)Nc1ccccc1)CC2 | inactive: -18.6% | –
16 | CN(C)c1ccc(CNS(=O)(=O)c2ccc(-c3cc(C(F)(F)F)on3)s2)cc1 | inactive: -5.2% | –
17 | Cc1cccc(N2CCN(S(=O)(=O)c3c(C)nc4scc(C)n4c3=O)CC2)c1C | inactive: -27% | –
18 | COc1ccccc1NC(=O)c1ccc(COc2ccc(C)c(C)c2)o1 | inactive: -5.49% | –
19 | CCCCn1c(=O)c2oc3ccccc3c2n(CC(=O)Nc2ccc(CC)cc2)c1=O | inactive: -10.7% | –
20 | CCn1cc2nc(SCc3cc(C)ccc3C)n(CCc3ccccc3)c(=O)c2n1 | inactive: 0.924% | –
21 | CCCCn1c(=N)n(CCCOc2ccc(F)cc2)c2ccccc21 | inactive: -30.2% | –
22 | Cn1c(=O)c2c(nc(N3CCOCC3)n2Cc2ccccc2Cl)n(C)c1=O | inactive: -15% | –
23 | COCCCNC(=O)CCCn1c(=O)c2ccccc2n(CC(=O)Nc2ccc(C)cc2Cl)c1=O | inactive: -3.21% | –
24 | CC(C)Cn1c(-c2ccccc2Cl)nc2ccccc21 | inactive: 15.3% | –
25 | O=C(NCCc1ccc(Cl)cc1)c1nnc(Cc2ccc(Cl)cc2Cl)o1 | inactive: -10.1% | –
26 | CCOc1ccc(-c2c(C)nn3c(C)c(C(=O)NCCN(C)C)cnc23)cc1OCC | inactive: -9.14% | –
27 | Cc1nc(S(=O)(=O)N2CCN(c3cccc(Cl)c3)CC2)cn1C | inactive: -3.41% | –
28 | O=C(NCCc1ccc(Cl)cc1)c1ccc2nc(CCc3ccccc3)oc2c1 | inactive: 17% | –
